ChEMBL document CHEMBL1201862, “PubChem BioAssay data set” (2004)
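Each compound was tested at five concentrations against cells in 96-well plates for 48 hours. GI50 marks 50% less growth.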 Activity calls are given as the source filed them. Cut-off read from the data, not from the text of the source: active = GI50 up to about 1.1 µM and inactive = higher.

Tests used:
Assay in all cases: NCI anticancer screen, dose series, 48 h
SR = tested on: SR
RPMI-8226 = tested on: RPMI-8226
OVCAR-8 = tested on: OVCAR-8
ACHN = tested on: ACHN
MDA-MB-231 = tested on: MDA-MB-231
NCI-H226 = tested on: NCI-H226
DU-145 = tested on: DU-145
OVCAR-4 = tested on: OVCAR-4
Hs-578T = tested on: Hs-578T
MOLT-4 = tested on: MOLT-4
EKVX = tested on: EKVX
HOP-62 = tested on: HOP-62
IGROV-1 = tested on: IGROV-1
SN12C = tested on: SN12C
LXFL 529 = tested on: LXFL 529
SNB-75 = tested on: SNB-75
U-251 = tested on: U-251
OVCAR-3 = tested on: OVCAR-3
HL-60 = tested on: HL-60
SF-539 = tested on: SF-539
UACC-257 = tested on: UACC-257
A549 = tested on: A549
MCF7 = tested on: MCF7
NCI-H460 = tested on: NCI-H460
CAKI-1 = tested on: CAKI-1
HOP-92 = tested on: HOP-92
KM-20L2 = tested on: KM-20L2
SF-268 = tested on: SF-268
786-0 = tested on: 786-0
SW-620 = tested on: SW-620
UO-31 = tested on: UO-31
PC-3 = tested on: PC-3
MDA-MB-435 = tested on: MDA-MB-435
NCI/ADR-RES = tested on: NCI/ADR-RES
SK-MEL-28 = tested on: SK-MEL-28
HCC 2998 = tested on: HCC 2998
T47D = tested on: T47D
TK-10 = tested on: TK-10
Malme-3M = tested on: Malme-3M
HOP-18 = tested on: HOP-18
OVCAR-5 = tested on: OVCAR-5
UACC-62 = tested on: UACC-62
K562 = tested on: K562
HCT-15 = tested on: HCT-15
LOX IMVI = tested on: LOX IMVI
A498 = tested on: A498

**Q.** Which results are given for COc1cc2c(c(OC)c1OC)-c1ccc(OC)c(=O)cc1[C@@H](N)CC2 [CITOSTAL]?
**A.** GI50 (SR): inactive: 1230 nM; GI50 (RPMI-8226): active: 99.3 nM; GI50 (OVCAR-8): active: 32.3 nM; GI50 (ACHN): active: 65 nM; GI50 (MDA-MB-231): active: 17.9 nM; GI50 (NCI-H226): active: 100 nM; GI50 (DU-145): active: 19.1 nM; GI50 (OVCAR-4): inactive: 11900 nM; GI50 (Hs-578T): active: 19.3 nM; GI50 (MOLT-4): active: 31.7 nM; GI50 (EKVX): inactive: 1320 nM; GI50 (HOP-62): active: 34 nM; GI50 (IGROV-1): active: 55.9 nM; GI50 (SN12C): active: 45.4 nM; GI50 (LXFL 529): active: 37.2 nM; GI50 (SNB-75): active: 16 nM; GI50 (U-251): active: 22.9 nM; GI50 (OVCAR-3): active: 14.3 nM; GI50 (HL-60): active: 39.5 nM; GI50 (SF-539): active: 15.9 nM; GI50 (UACC-257): active: 427 nM; GI50 (A549): active: 27.4 nM; GI50 (MCF7): active: 55.6 nM; GI50 (NCI-H460): active: 18.9 nM; GI50 (CAKI-1): active: 73.5 nM; GI50 (HOP-92): active: 58.2 nM; GI50 (KM-20L2): active: 11.7 nM; GI50 (SF-268): active: 34.7 nM; GI50 (786-0): active: 124 nM; GI50 (SW-620): active: 16.6 nM; GI50 (UO-31): active: 796 nM; GI50 (PC-3): active: 23.2 nM; GI50 (MDA-MB-435): active: 11 nM; GI50 (NCI/ADR-RES): active: 206 nM; GI50 (SK-MEL-28): inactive: 2420 nM; GI50 (HCC 2998): active: 29.6 nM; GI50 (T47D): inactive: > 100000 nM; GI50 (TK-10): inactive: 2590 nM; GI50 (Malme-3M): active: 41.9 nM; GI50 (HOP-18): inactive: 53800 nM; GI50 (OVCAR-5): active: 431 nM; GI50 (UACC-62): active: 15.7 nM; GI50 (K562): active: 12.1 nM; GI50 (HCT-15): 44.9 nM; GI50 (LOX IMVI): active: 30.6 nM; GI50 (A498): active: 33.6 nM
